# Measurements published in the supplement of paper PMC7826260.
# The list shows a part of the results. One pool of 16,384 single-stranded DNAs met each Rep nickase domain in vitro (3 µM enzyme, 1 h, 37 °C); shown is the middle of each 90-letter strand. The score is log2 (uncut reads / reads without enzyme); uncut sequences lie near 0, cut ones below; no hit call is given. Reads are scaled to the total; values above 0 arise when much of the pool is cut.
# Tests used:
# Assay in all cases: uncleaved DNA left, log2 of reads against the no-enzyme library (log2 ratio); higher = less cleavage (more negative = more Rep cleavage of the k-mer); sequences stand for … in CTCGTCCG…ACCGGAGA
# [1] = system: T1, Rep nickase domain of Muscovy duck circovirus
# T1 sequence (protein, residues 1-111, tag omitted): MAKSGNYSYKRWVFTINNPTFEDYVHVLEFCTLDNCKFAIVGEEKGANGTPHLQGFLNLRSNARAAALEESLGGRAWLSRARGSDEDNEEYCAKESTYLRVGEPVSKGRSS
# Procedure: (§1)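 A pool of 90-nt single-stranded DNAs with seven random bases just before the constant AC of the nick site (name = the seven bases) was cut by 3 µM recombinant His6-SUMO-tagged Rep nickase domain (300 nM DNA, 50 mM HEPES pH 8.0, 50 mM NaCl, 1 mM MnCl2, 1 h, 37 °C, three replicates). Uncut DNA was amplified and sequenced.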
# [2] = system: T2, Rep nickase domain of banana bunchy top virus
# T2 sequence (protein, residues 1-94, tag omitted): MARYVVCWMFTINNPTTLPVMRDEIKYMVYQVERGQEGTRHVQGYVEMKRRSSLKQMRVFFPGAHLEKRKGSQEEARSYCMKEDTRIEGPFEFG
# Procedure: as §1
# [3] = system: T3, Rep nickase domain of cabbage leaf curl virus
# T3 sequence (protein, residues 1-116, tag omitted): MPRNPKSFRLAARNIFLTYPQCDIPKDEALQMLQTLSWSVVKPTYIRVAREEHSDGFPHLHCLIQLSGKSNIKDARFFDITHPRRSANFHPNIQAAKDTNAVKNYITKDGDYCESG
# Procedure: as §1
# [4] = system: T4, Rep nickase domain of chickpea chlorotic dwarf virus
# T4 sequence (protein, residues 1-124, tag omitted): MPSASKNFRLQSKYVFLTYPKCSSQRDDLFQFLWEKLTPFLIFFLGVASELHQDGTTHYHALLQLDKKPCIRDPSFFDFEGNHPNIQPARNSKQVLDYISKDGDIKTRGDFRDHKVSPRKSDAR
# Procedure: as §1
# [5] = system: T5, Rep nickase domain of faba bean necrotic yellows virus
# T5 sequence (protein, residues 1-98, tag omitted): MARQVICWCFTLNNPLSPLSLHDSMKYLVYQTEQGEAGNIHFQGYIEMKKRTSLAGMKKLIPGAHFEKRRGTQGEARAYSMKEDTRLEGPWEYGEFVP
# Procedure: as §1
# [6] = system: T6, Rep nickase domain of maize striate mosaic virus
# T6 sequence (protein, residues 1-117, tag omitted): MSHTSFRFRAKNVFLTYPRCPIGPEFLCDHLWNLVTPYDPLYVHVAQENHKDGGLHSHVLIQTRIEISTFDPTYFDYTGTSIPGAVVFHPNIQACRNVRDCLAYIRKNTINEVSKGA
# Procedure: as §1
# [7] = system: T7, Rep nickase domain of porcine circovirus 2
# T7 sequence (protein, residues 2-116, tag omitted): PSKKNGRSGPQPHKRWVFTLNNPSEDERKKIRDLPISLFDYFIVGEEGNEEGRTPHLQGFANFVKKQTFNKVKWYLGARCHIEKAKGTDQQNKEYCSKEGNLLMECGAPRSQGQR
# Procedure: as §1
# [8] = system: T8, Rep nickase domain of tomato yellow leaf curl virus
# T8 sequence (protein, residues 1-136, tag omitted): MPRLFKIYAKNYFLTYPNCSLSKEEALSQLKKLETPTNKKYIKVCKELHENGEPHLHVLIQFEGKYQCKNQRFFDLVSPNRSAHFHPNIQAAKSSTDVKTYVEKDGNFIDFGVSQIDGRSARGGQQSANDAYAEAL
# Procedure: as §1
# [9] = system: T9, Rep nickase domain of wheat dwarf virus
# T9 sequence (protein, residues 1-137, tag omitted): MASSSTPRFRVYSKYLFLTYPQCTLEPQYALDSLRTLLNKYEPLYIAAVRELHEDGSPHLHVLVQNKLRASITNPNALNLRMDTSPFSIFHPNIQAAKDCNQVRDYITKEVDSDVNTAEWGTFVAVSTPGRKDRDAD
# Procedure: as §1
Sequence,uncleaved DNA left (log2) [1],uncleaved DNA left (log2) [2],uncleaved DNA left (log2) [3],uncleaved DNA left (log2) [4],uncleaved DNA left (log2) [5],uncleaved DNA left (log2) [6],uncleaved DNA left (log2) [7],uncleaved DNA left (log2) [8],uncleaved DNA left (log2) [9]
ACCTCTT,-1.51,-0.19,-0.589,-2.14,-0.0796,-0.341,-2.84,-0.296,-0.168
GCAAAAT,-0.021,0.108,0.163,0.157,0.171,0.0716,0.102,0.0525,0.175
CTACACT,-0.045,-0.0178,-1.14,-2.76,-0.0211,-1.05,-0.405,-0.179,-0.537
CTATGAG,0.0845,-0.00664,-0.767,-0.126,0.183,-1.09,0.185,0.0873,-0.0947
TATTCAT,-3.65,-2.5,0.102,-1.02,-0.0365,0.629,-3.69,0.0193,0.0914
TTTTGGG,0.104,0.102,-0.644,-0.602,0.0763,-0.966,0.127,0.0201,-0.108
TAAGTGG,0.0779,-0.0223,0.082,0.285,0.0297,-0.0346,0.0879,-0.101,0.0024
AAAGCCG,-0.039,-0.039,-0.866,-0.368,-0.0409,-1.15,0.124,-0.0596,-0.0991
ATTGGGC,0.00197,-0.104,-0.538,-0.696,-0.124,-0.929,0.046,-0.0928,-0.166
TGTTTAC,0.122,0.0433,0.433,0.677,0.091,1.88,0.136,0.106,0.17
TTTAGCG,0.0457,-0.127,-0.742,0.531,-0.0363,-0.776,0.131,-0.0388,-0.0922
TGGTGAG,-0.00912,-0.106,-0.496,-0.136,0.0218,-0.709,0.124,-0.00903,-0.0727
TTAAGAA,-0.0913,-0.111,-0.22,-1.26,-0.0416,-0.451,-0.133,-0.119,-0.148
GAACCGG,-0.0149,0.0404,0.549,1.51,0.0339,1.96,0.145,0.00916,0.115
GTGCCCC,-0.158,-0.08,0.282,0.757,-0.117,1.67,0.0197,0.0158,-0.0986
TTATGGA,0.12,0.0252,0.0628,0.074,0.0966,-0.4,0.0572,0.00355,0.0865
GGACAGT,0.0406,0.0315,0.853,1.98,-0.0222,2.24,0.163,0.0161,0.142
AGTTGAG,0.0903,-0.0785,-0.589,0.195,0.2,-0.76,0.147,0.139,0.00365
GGCGGAG,0.0863,0.109,0.3,0.775,0.0259,1.21,0.155,0.112,0.0762

Sequence,uncleaved DNA left (log2) [1],uncleaved DNA left (log2) [2],uncleaved DNA left (log2) [3],uncleaved DNA left (log2) [4],uncleaved DNA left (log2) [5],uncleaved DNA left (log2) [6],uncleaved DNA left (log2) [7],uncleaved DNA left (log2) [8],uncleaved DNA left (log2) [9]
GCCAGAG,0.085,0.0893,-0.317,-0.0717,0.0203,-0.704,0.255,0.027,-0.0101
CATGGAA,-0.0775,-0.0481,0.0297,0.746,-0.0416,0.28,0.116,-0.0464,-0.000817
GGGCCAG,0.114,0.0991,0.865,2.07,-0.00691,2.29,0.306,-0.0266,0.212
GGCATCG,0.0486,0.0557,-0.307,-0.286,-0.0943,-0.651,0.134,0.0548,-0.078
TCATTTA,-0.261,-0.0581,-0.165,-1.49,-0.143,-0.647,-0.266,-0.244,-0.15
AGAGGGT,0.0541,0.106,0.337,1.49,-0.0019,1.89,0.222,-0.0288,-0.0535
TGGTAGC,0.0238,-0.203,0.00487,0.0189,-0.073,-0.312,0.056,-0.0805,-0.0344
AAGTATA,-0.0379,-0.0982,-0.126,-1.81,-0.24,0.322,-3.2,-0.0661,0.0578
GTAATGA,-0.135,0.046,0.244,0.703,-0.1,1.3,-0.0298,-0.0382,0.0103
GTTTCGA,0.109,0.188,0.334,0.828,0.045,1.35,0.133,0.0852,0.124
CGATGAC,0.0209,-0.0398,-0.108,0.482,-0.00372,0.157,0.0614,0.0115,0.0127
AACTCAA,-0.0307,-0.00811,-0.0295,-0.768,-0.029,-0.636,-0.892,-0.0778,-0.0318
CAGTTGT,-0.267,-1.58,-0.493,-1.35,-0.436,-0.81,-3.86,0.0449,-0.182
TACTAAA,-0.163,-0.0393,-0.138,-1.34,0.0493,-0.574,-2.28,0.0153,-0.00456
CATTTGT,-3.08,-3.23,-0.732,-1.49,-0.0347,-1.12,-3.47,0.023,-0.192
AGGATTC,0.0344,0.044,0.145,0.517,-0.16,0.167,0.026,-0.0591,0.075
CTGCGCT,-0.135,-0.203,-0.825,-0.958,-0.132,-1.18,-0.0225,-0.0618,-0.192
AAGGTAA,0.161,0.126,0.297,1.06,0.163,1.16,0.21,0.127,0.174
ATGATAA,0.0321,0.0505,-0.254,-0.198,0.0229,-0.348,0.102,-0.0411,0.0112

Sequence,uncleaved DNA left (log2) [1],uncleaved DNA left (log2) [2],uncleaved DNA left (log2) [3],uncleaved DNA left (log2) [4],uncleaved DNA left (log2) [5],uncleaved DNA left (log2) [6],uncleaved DNA left (log2) [7],uncleaved DNA left (log2) [8],uncleaved DNA left (log2) [9]
TGCTGGT,-0.0535,-0.0959,0.121,0.0253,0.0848,0.248,-0.617,-0.05,-0.00256
GTCGATA,-0.0917,0.0274,0.292,0.714,-0.0309,1.49,-0.00626,-0.195,0.0385
ACCTCGA,-0.017,-0.0378,-0.621,-0.737,0.0325,-1.08,0.0013,0.0246,0.0341
TCGTCGA,0.141,-0.0479,-0.375,-0.698,-0.0442,-0.902,0.0914,-0.0211,-0.128
TACGGAA,0.135,0.0783,0.331,0.593,0.166,0.874,0.182,0.0517,0.122
CCTCTAC,0.000606,-0.0204,-0.117,-2.06,0.162,-0.622,0.144,0.0863,0.0518
AACTACT,-3.57,-3.41,-2.63,-3.1,-0.624,-1.06,-4.06,0.0484,-0.426
ATTAATA,-0.149,-0.0689,-0.237,-1.77,-0.0181,-0.67,-0.201,-0.0314,-0.0653
CCTCAGT,0.0599,-0.00664,0.0949,0.183,0.112,0.344,0.0758,0.0265,0.00229
TCGGAGC,0.0491,-0.0323,-0.14,0.0879,-0.0517,-0.564,0.144,-0.0433,0.0403
GCATGGG,0.0476,-0.0788,-0.657,-0.558,0.0038,-0.912,0.13,0.0508,-0.187
AAAAAGC,0.103,0.204,-0.135,-0.267,0.0712,-1.08,0.319,0.164,0.0912
ATAGTAA,0.0677,0.0393,-0.0807,-0.322,0.00932,-0.405,0.043,-0.0436,0.0721
ACCTGGT,-0.161,0.0294,-0.314,-0.159,0.13,-0.402,-1.12,0.0767,0.0183
TGATTCA,-0.0911,0.147,0.319,-0.443,0.0717,0.084,-0.0604,0.221,0.212
AGTTTTC,0.0396,0.00181,0.103,0.0414,-0.0131,-0.192,-0.116,0.00438,0.0822
TGAGCTA,0.038,-0.0171,0.0252,-0.0148,-0.00341,0.403,-0.484,0.0239,0.0279
CTGAGCA,0.0762,0.0686,-0.199,-0.379,0.008,-0.849,-1.55,0.0083,-0.0372
